# Measured values reported in paper PMC4336329 (PLoS ONE, 2015).
# The campaign covered roughly 310,000 compounds. About 2,200 (0.71%) showed an effect of 50% or more. The effect is printed as a negative number. The list shows a part of the results.
# Biological target: human ether-à-go-go-related gene (hERG) potassium channel (human, UniProt Q12809)
# Experiment: primary screen, population patch clamp on CHO cells stably expressing hERG
# human ether-à-go-go-related gene (hERG) potassium channel, sequence (Q12809 whole entry, looked up): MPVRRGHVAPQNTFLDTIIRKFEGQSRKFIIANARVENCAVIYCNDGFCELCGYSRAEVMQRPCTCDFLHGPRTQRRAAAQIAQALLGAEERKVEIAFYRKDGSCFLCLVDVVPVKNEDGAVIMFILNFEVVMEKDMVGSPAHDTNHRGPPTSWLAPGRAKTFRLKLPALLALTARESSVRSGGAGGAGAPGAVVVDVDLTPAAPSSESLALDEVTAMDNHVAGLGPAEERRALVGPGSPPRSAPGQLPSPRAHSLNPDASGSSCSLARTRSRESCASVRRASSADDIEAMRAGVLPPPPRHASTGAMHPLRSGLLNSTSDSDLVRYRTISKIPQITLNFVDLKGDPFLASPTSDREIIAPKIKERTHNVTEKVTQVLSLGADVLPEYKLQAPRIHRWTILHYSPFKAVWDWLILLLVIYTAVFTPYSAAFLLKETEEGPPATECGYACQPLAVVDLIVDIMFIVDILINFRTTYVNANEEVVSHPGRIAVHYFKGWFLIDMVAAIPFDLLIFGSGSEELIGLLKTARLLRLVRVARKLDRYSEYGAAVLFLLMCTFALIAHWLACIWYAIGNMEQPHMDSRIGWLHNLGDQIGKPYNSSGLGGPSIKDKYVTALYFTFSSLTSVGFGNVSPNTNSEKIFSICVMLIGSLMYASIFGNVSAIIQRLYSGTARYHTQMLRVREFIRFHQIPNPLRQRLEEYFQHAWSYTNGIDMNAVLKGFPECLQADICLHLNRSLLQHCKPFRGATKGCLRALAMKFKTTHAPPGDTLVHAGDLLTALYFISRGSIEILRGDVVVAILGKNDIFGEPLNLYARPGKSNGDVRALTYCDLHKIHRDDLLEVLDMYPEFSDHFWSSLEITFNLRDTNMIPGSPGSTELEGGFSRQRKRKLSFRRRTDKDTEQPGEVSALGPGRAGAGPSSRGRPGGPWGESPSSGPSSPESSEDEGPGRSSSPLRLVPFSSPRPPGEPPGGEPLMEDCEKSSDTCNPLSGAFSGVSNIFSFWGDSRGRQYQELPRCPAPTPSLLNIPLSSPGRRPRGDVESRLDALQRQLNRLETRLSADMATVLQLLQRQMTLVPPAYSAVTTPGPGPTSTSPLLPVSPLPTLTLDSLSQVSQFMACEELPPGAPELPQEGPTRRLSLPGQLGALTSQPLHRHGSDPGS
row,SMILES,"hERG current change (%, negative = inhibition) at 1uM [%]"
1,O=C(COC(=O)CCc1nc2ccccc2c(=O)[nH]1)Nc1ccc(N2CCOCC2)cc1,-0.012
2,O=C(C[n+]1ccc(-c2nnc3n2CCC3)cc1)c1ccc(Cl)c(Cl)c1.[Br-],-4.73
3,CC(C)C(=O)Nc1cc(S(=O)(=O)Nc2ccc(Cl)cc2)ccc1Cl,9.57
4,O=C(Nc1nc(-c2ccccn2)cs1)c1cc(Cl)ccc1[N+](=O)[O-],12.5
5,O=C(NCc1ccc2c(c1)OCO2)C(=O)NCC1OCCCN1S(=O)(=O)c1ccc(F)cc1 (centres unmarked),8.73
6,COC(=O)C(NC(=O)COc1ccccc1)(Nc1nc2c(s1)CCCC2)C(F)(F)F (centres unmarked),10.9
7,Cc1ccc(S(=O)(=O)Nc2ccccc2CNc2cccc(C)n2)cc1,0.616
8,Cc1ccc2c(c1)C(c1ccncc1)=NNC(c1cccnc1)=N2,-2.36
9,CC(C)(C)NC(=O)CSc1nnc(NC(=O)CCn2cnc3ccccc3c2=O)s1,15
10,COc1cc(-c2[nH]ncc2CN(C)Cc2nonc2C)cc(OC)c1OC,2.33
11,CCNC(=O)C1Cc2cc(S(=O)(=O)N3CCCC3)ccc2N1C(C)=O (centres unmarked),11.9
12,CC1(C)Cc2noc(N)c2C(C)(C)N1O.Cl,3.45
13,COc1ccccc1OCC(=O)N1CCCC(Nc2ccc(C)c(C)c2)C1 (centres unmarked),6.65
14,COc1ccc(N2CCN(C(=O)c3ccc(NS(=O)(=O)c4cccs4)cc3)CC2)cc1,-6.84
15,CC(=O)C1=C(O)C(=O)N(Cc2ccccc2)C1c1ccc(Cl)cc1 (centres unmarked),11
16,O=C1Nc2ccc3sc4ccccc4c3c2C1=O,11
17,CC1Cc2cc(S(=O)(=O)CCC(=O)NC3CCCCC3)ccc2N1C(=O)C1CC1 (centres unmarked),16.2
18,CCOc1cc(-c2noc(CCCC(=O)NC3CCCCC3)n2)ccc1OC,11.8
19,CC(C)NC(=O)NC(=O)COC(=O)c1ccccc1O,3.84
20,CCCN1CCN(CCCNC(=O)c2ccc3c(=O)n(CCc4ccccc4)c(=O)[nH]c3c2)CC1,11.3
21,CC(=O)c1c(C(C)=O)c(C)n(NC(=O)c2cccnc2)c1C,9.42
22,O=C1c2cccc3cccc(c23)C(=O)N1CCN1CCN(C(=S)Nc2ccc(F)cc2)CC1,10.7
23,Cc1cc(S(=O)(=O)N2CCCC2C(=O)N2CCOCC2)c(C)cc1Cl (centres unmarked),-0.225

row,SMILES,"hERG current change (%, negative = inhibition) at 1uM [%]"
1,Cc1ccc(C(=O)NC2CCSC2=O)cc1 (centres unmarked),16.5
2,Cc1ccc(OCCOCCN2CCCCC2)c([N+](=O)[O-])c1.O=C(O)C(=O)O,5.7
3,CCOC(=O)c1c(C)noc1CP(=O)(c1ccccc1)c1ccccc1,-4.82
4,Cc1cc(C)cc(N(C(=O)CCC(=O)Nc2ccccn2)C(C(=O)NC(C)C)c2ccc(O)cc2)c1 (centres unmarked),1.99
5,CC1(C)CC(NC(=O)c2ccc(Cl)c(S(=O)(=O)N(Cc3ccccc3)c3ccccc3)c2)CC(C)(C)N1,-3.46
6,[O-][Cl+3]([O-])([O-])[O-].c1ccc(-c2[nH]c(-c3ccccc3)[n+](CC3CO3)c2-c2ccccc2)cc1 (centres unmarked),-2.8
7,O=S(=O)(c1ccc(C(F)(F)F)cc1)N1CCN(CCc2ccccc2)CC1,-2.3
8,CCOc1ccc(NC(=O)CN(C)C(=O)c2ccc(N3CCCCC3)c([N+](=O)[O-])c2)cc1OCC,-8.96
9,CC(C)(C)NC(=S)N/N=C/c1c(Cl)cccc1Cl,15.1
10,CN1CCC(=NNC(=O)CSCc2ccccc2)CC1,4.33
11,Clc1ccccc1Nc1c2c(nc3ncnn13)CCC2,-2.68
12,CN(CC(=O)Nc1ccc(Cl)c(C(F)(F)F)c1)C(=O)CCc1nc2ccccc2c(=O)[nH]1,-0.246
13,CC(OC(=O)CCCNC(=O)c1ccc(Cl)cc1)C(=O)N(C)Cc1ccccc1 (centres unmarked),-11.2
14,COC(=O)c1cncc(O)c1,3.22
15,O=S(=O)(c1ccc(Br)s1)N1CCN(c2ccnc3cc(Cl)ccc23)CC1,6.07
16,CCCCOc1ccccc1C1C(C(=O)OC)=CN(CC)C=C1C(=O)OC,-0.63
17,CCc1ccc(CN(C)C(=O)c2cc(COc3cc(C)c(Cl)c(C)c3)on2)nc1,18.9
18,CC(NC(=O)c1ccnc(C(C)(C)C)c1)c1ccccc1 (centres unmarked),23.3
19,COc1ccc(OC)c(C(=O)c2ccccn2)c1,9.76
20,CCCCN(CC)C(=O)c1ccccc1Oc1ccccc1,5.27
21,CC(=O)NS(=O)(=O)c1ccc2sc(C)nc2c1,8.85
22,O=C(Nc1ccccc1SCC1CSc2nc3ccccc3c(=O)n21)c1cccc(Cl)c1 (centres unmarked),-49.6
23,CNc1nc(-c2ccccc2)cc(C(F)(F)F)c1C#N,12.4

row,SMILES,"hERG current change (%, negative = inhibition) at 1uM [%]"
1,Cc1noc(C)c1COC(=O)CCc1ccc(S(=O)(=O)N2CCCCC2)cc1,2.97
2,O=C1NC(=O)C(Cc2ccccc2)(c2cccnc2)N1 (centres unmarked),13.1
3,Cc1cc(Br)ccc1NC(=O)C1CCN(S(=O)(=O)c2cnc[nH]2)CC1,12.3
4,COc1cccc(Nc2nc(-c3ccccc3)nc3ccccc23)c1,10.7
5,CC(=O)Nc1ccc(Nc2nc(C)cc(C)n2)cc1,15.7
6,CCCn1c(SCC(=O)Nc2cc(S(=O)(=O)N3CCCCC3)ccc2C)n[nH]c1=O,3.05
7,CCCC(=O)Nc1cc(C(=O)O)ccc1Sc1ccc(C)cc1,10.9
8,CCOC(=O)CNc1cccc(C(F)(F)F)c1,5.6
9,c1coc(CN2CNc3nc4ccccc4n3C2)c1,7.88
10,S=c1[nH]ccn1CCc1ccccc1,13.6
11,Cc1onc(-c2ccccc2)c1C(=O)Nc1ccc(Br)cc1Cl,14.5
12,O=C(COC(=O)CCSc1ccccc1)NCc1ccc(F)cc1,11.2
13,COc1ccc(Nc2ncnc3nc[nH]c23)cc1OC,12.4
14,Cc1noc(C(F)(F)F)c1C(=O)NNC(=O)c1cccc(C(F)(F)F)c1,14.8
15,CSc1nc(N2CCN(Cc3ccc4c(c3)OCO4)CC2)c2ccccc2n1,-1.48
16,O=C(Nc1nc2c(s1)CCCC2)c1cc(-c2ccccc2)nc2ccccc12,5.45
17,CC(NCC(O)c1ccc([N+](=O)[O-])cc1)C12CC3CC(CC(C3)C1)C2 (centres unmarked),-35.4
18,Cc1ccc(CNC(=O)CCNC(=O)c2ccc(Br)o2)cc1,4.99
19,COc1cccc2sc(NNC(=O)C3COc4ccccc4O3)nc12 (centres unmarked),12.8
20,CC1(C)CC(=O)C(C=Nc2cccnc2/N=C/C2=C(O)CC(C)(C)CC2=O)=C(O)C1,7.45
21,COc1c(Br)cc(Br)cc1/C=C1/C(=O)N=C(N)N1C,8.09
22,Cc1ccc(S(=O)(=O)N2[C@@H](c3ccccc3F)C(C(=O)O)=CC[C@H]2c2ccc(Cl)cc2)cc1,6.33
23,Cn1ncc(Cl)c1C(=O)NCc1ccco1,7.79

row,SMILES,"hERG current change (%, negative = inhibition) at 1uM [%]"
1,CC(C)=NNC(=O)CN1C(=O)NC2NC(=O)NC21 (centres unmarked),8.02
2,CCC(=O)c1c[nH]c(C(=O)NCC2CCCO2)c1 (centres unmarked),6.8
3,CC1CCc2nc(N)c(C#N)c(-c3cccn3C)c2C1 (centres unmarked),1.2
4,COc1cccc(-c2cc(C(=O)Nc3ccccc3)c3ccccc3n2)c1,12.9
5,COc1ccc(CCC(=O)NCc2cn3ccccc3n2)cc1,4.45
6,CC1(C)Cc2ccccc2C(NNC(=O)c2ccc(Br)o2)=N1,7.93
7,Cc1ccc(CNC(=O)CC(C)S(=O)(=O)c2ccc3c(c2)NC(=O)CS3)o1 (centres unmarked),45.5
8,CCOC(=O)c1ccc(NS(=O)(=O)c2cn(C)cn2)cc1,20.3
9,COc1cccc(Cn2nc3c4cc(F)ccc4n(Cc4ccc(F)cc4)cc-3c2=O)c1,17.3
10,O=C(O)/C=C/C(=O)Nc1ccc(-n2nccc2C(F)(F)F)cc1,14.2
11,CCn1c(=O)c(C(=O)NNC(=O)c2ccccc2Br)c(O)c2ccccc21,6.54
12,N#Cc1c(Nc2ccccc2)c(C=NCCN2CCOCC2)c[nH]c1=O,13.9
13,Cc1ccc(S(=O)(=O)N2N=C3CCCCC3C2(O)C(F)(F)F)cc1 (centres unmarked),12.6
14,COc1ccc(N(CC(=O)NCc2ccc3c(c2)OCO3)C(=O)c2csnn2)cc1,11.8
15,CSc1ccc(CN2CCc3c([nH]c4ccccc34)C2)cc1,-15.2
16,CCCCCCC(=O)NNC(=O)c1c(O)c2ccccc2n(CCC)c1=O,10.8
17,CCN(CC(=O)Nc1cc(Cl)ccc1C)c1ncnc2sc(C)c(C)c12,5.24
18,O=C(NC1CCOC1)c1ccc(OC2CCN(CCc3ccccc3)CC2)cc1 (centres unmarked),-0.684
19,Nc1ccc(SC(F)(F)F)cc1,21.1
20,CCCCCCCn1ccc(=N)cc1.I,6.34
